The list shows a part of the results. At the low end of the ranking the order means little.
Molecular target: GST-SBP-SLBP (stem-loop binding protein) (UniProt Q14493)
Assay: targeted RNA Bind-n-Seq;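 further: DESeq read counts versus GST-SBP nonspecific binding control pulldown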
Conditions: RBNS binding buffer: 25 mM Tris pH 7.5, 150 mM KCl, 3 mM MgCl2, 0.1% Tween, 0.5 mg/mL BSA, 1 mM DTT; 27 nM protein, 750 pM RNA pool; temperature not stated; high values mean tight binding

Row | Sequence | binding signal (log2 fold change)
1 | GGUCACGUCUCAAUCAACUCUAUUUCCAGGGAAAACCCUGGUAUUCUCAACAGCUCGCAGUCAAG | -0.151
2 | GGUCACGUCUCAAUCAACUCUUCCCCAGGAGUUUCCUCCUGCUUUUUCAACAGCUCGCAGUCAAG | 0.181
3 | GGUCACGUCUCAAUCAACUCAUCUCCAGGAGUUUCCUCCUGCAUUUUCAACAGCUCGCAGUCAAG | 0.0373
4 | GGUCACGUCUCAAUCAACUCAACUCCCAGGGAAAACCCUGGUUAACUCAACAGCUCGCAGUCAAG | 0.03
5 | GGUCACGUCUCAAUCAACUCAUCGCCAGGAGUUUCCUCCUGUAUACUCAACAGCUCGCAGUCAAG | 0.091
6 | GGUCACGUCUCAAUCAACUCAUUCCCCAGGGAAACCCCUGGCUAACUCAACAGCUCGCAGUCAAG | 0.341
7 | GGUCACGUCUCAAUCAACUCAACUCCAGGAGUUUCCUCCUGUUUACUCAACAGCUCGCAGUCAAG | 0.117
8 | GGUCACGUCUCAAUCAACUCACAAGAGGGGGGGAAAACCCCUUUGCCCUCCACAUCAACAGCUCGCAGUCAAG | 0.146
9 | GGUCACGUCUCAAUCAACUCUACUCCAGGAGUUUCCUCCUGUAUAUUCAACAGCUCGCAGUCAAG | 0.217
10 | GGUCACGUCUCAAUCAACUCAAUUCCCAGGGAAAGCCCUGGCAUAUUCAACAGCUCGCAGUCAAG | -0.122
11 | GGUCACGUCUCAAUCAACUCAUUAGAGGGGGGGAAAACCCCUUUGCCCUCAAUUUCAACAGCUCGCAGUCAAG | 0.237
12 | GGUCACGUCUCAAUCAACUCAUUUUCAGGAGUUUCCUCCUGUUUUCUCAACAGCUCGCAGUCAAG | -0.0372
13 | GGUCACGUCUCAAUCAACUCAAGUCCAGGAGUUUUCUCCUGCUAUUUCAACAGCUCGCAGUCAAG | -0.114
14 | GGUCACGUCUCAAUCAACUCAGUCCCAGGAGUUUACUCCUGUUUAUUCAACAGCUCGCAGUCAAG | 0.0578
15 | GGUCACGUCUCAAUCAACUCUUUUUCCAGGGAAACCCCUGGUAGUCUCAACAGCUCGCAGUCAAG | -0.1
16 | GGUCACGUCUCAAUCAACUCACAAGAGGGGGGGAAAACCCCUUUACCCUCGUCAUCAACAGCUCGCAGUCAAG | -0.132
17 | GGUCACGUCUCAAUCAACUCUUCUCCAGGAGUUUCCUCCUGUAAUCUCAACAGCUCGCAGUCAAG | -0.0655
18 | GGUCACGUCUCAAUCAACUCAGUUUCAGGAGUUUGCUCCUGCAUUUUCAACAGCUCGCAGUCAAG | 0.0209
19 | GGUCACGUCUCAAUCAACUCUUUCUCAGGAGUUUUCUCCUGCAUUUUCAACAGCUCGCAGUCAAG | -0.204

Row | Sequence | binding signal (log2 fold change)
20 | GGUCACGUCUCAAUCAACUCAAUCUCCAGGGAAAUCCCUGGCAAUCUCAACAGCUCGCAGUCAAG | 0.0266
21 | GGUCACGUCUCAAUCAACUCUAAAGAGGGGGGGAAAACCCCUUUACCCUCAACCUCAACAGCUCGCAGUCAAG | 0.0753
22 | GGUCACGUCUCAAUCAACUCAUCUCCCAGGGAAAGCCCUGGUAUACUCAACAGCUCGCAGUCAAG | -0.0898
23 | GGUCACGUCUCAAUCAACUCUUUCGAGGGGGGGAAAACCCCUUUACCCUCACUCUCAACAGCUCGCAGUCAAG | -0.045
24 | GGUCACGUCUCAAUCAACUCUUUCCCCAGGGAAAGCCCUGGCUUUUUCAACAGCUCGCAGUCAAG | -0.108
25 | GGUCACGUCUCAAUCAACUCUUUUUCCAGGGAAAACCCUGGCGUUUUCAACAGCUCGCAGUCAAG | -0.226
26 | GGUCACGUCUCAAUCAACUCAAUCCCAGGAGUUUCCUCCUGUUAUGUCAACAGCUCGCAGUCAAG | 0.0684
27 | GGUCACGUCUCAAUCAACUCUAUCCCCAGGGAAACCCCUGGUAAACUCAACAGCUCGCAGUCAAG | -0.386
28 | GGUCACGUCUCAAUCAACUCAUUCCCCAGGGAAAUCCCUGGUAGUCUCAACAGCUCGCAGUCAAG | -0.166
29 | GGUCACGUCUCAAUCAACUCUAUCUCCAGGGAAACCCCUGGCUUUCUCAACAGCUCGCAGUCAAG | 0.169
30 | GGUCACGUCUCAAUCAACUCAUUCUCCAGGGAAAGCCCUGGUUAUUUCAACAGCUCGCAGUCAAG | 0.192
31 | GGUCACGUCUCAAUCAACUCUCCCGAGGGGGGGAAAACCCCUUUACCCUCUCCAUCAACAGCUCGCAGUCAAG | -0.00214
32 | GGUCACGUCUCAAUCAACUCAUCUUCAGGAGUUUUCUCCUGCUUUUUCAACAGCUCGCAGUCAAG | -0.0637
33 | GGUCACGUCUCAAUCAACUCUAUCUCCAGGGAAAGCCCUGGUAAACUCAACAGCUCGCAGUCAAG | 0.117
34 | GGUCACGUCUCAAUCAACUCUUUCCCCAGGGAAACCCCUGGCAUUCUCAACAGCUCGCAGUCAAG | 0.163
35 | GGUCACGUCUCAAUCAACUCAUUAGAGGGGGGGAAAACCCCUUUGCCCUCAUUAUCAACAGCUCGCAGUCAAG | -0.0671
36 | GGUCACGUCUCAAUCAACUCAUCUCCCAGGGAAAACCCUGGCAAACUCAACAGCUCGCAGUCAAG | -0.314
37 | GGUCACGUCUCAAUCAACUCUUUCCCCAGGGAAAUCCCUGGUAUUCUCAACAGCUCGCAGUCAAG | 0.0453

Reference: article PMC5892938
